From PubChem BioAssay AID1745853 (National Center for Advancing Translational Sciences (NCATS), 2022)
Where “and” joins values, the source holds several entries; their conditions need not be identical. Identical values can stand only once. The list shows a part of the results. The main result of the screen is listed elsewhere. These columns were measured beside it and carry no call.

How the values were obtained:
Assay in all cases: Primary Screen for Target Class Profiling of Small Molecule Inhibitors of Methyltransferases
[1] = target: Glycine N-methyltransferase (Homo sapiens) (UniProt Q14749); details: purified enzyme, MTase-Glo SAH luminescence; measured here: GNMT inhibition; at 40 µM; stronger effect = lower value
Summary of the method: (§1)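 Each enzyme was reacted with SAM and its substrate, with compounds tested once at 40 uM; SAH formed was read by MTase-Glo luminescence.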

[2] = target: Guanidinoacetate N-methyltransferase (Homo sapiens) (UniProt Q14353); details: purified enzyme, MTase-Glo SAH luminescence; measured here: GAMT inhibition; at 40 µM; stronger effect = lower value
Summary of the method: as §1

[3] = target: Histamine N-methyltransferase (Homo sapiens) (UniProt P50135); details: purified enzyme, MTase-Glo SAH luminescence; measured here: HNMT inhibition; at 40 µM; stronger effect = lower value
Summary of the method: as §1

[4] = target: Nicotinamide N-methyltransferase (Homo sapiens) (UniProt P40261); details: purified enzyme, MTase-Glo SAH luminescence; measured here: NNMT inhibition; at 40 µM; stronger effect = lower value
Summary of the method: as §1

[5] = target: Phenylethanolamine N-methyltransferase (Homo sapiens) (UniProt P11086); details: purified enzyme, MTase-Glo SAH luminescence; measured here: PNMT inhibition; at 40 µM; stronger effect = lower value
Summary of the method: as §1
% is scaled to controls: 0 for no effect and ±100 for the full control effect.

| SMILES | activity change, negative = inhibition [1] | activity change, negative = inhibition [2] | activity change, negative = inhibition [3] | activity change, negative = inhibition [4] | activity change, negative = inhibition [5] |
| --- | --- | --- | --- | --- | --- |
| O=c1[nH]c2cc(Cl)ccc2c(O)c1-c1ccc(Oc2ccccc2)cc1 | -6.39% | 12.6% | 5.3% | -17.4% | 1.16% |
| COc1cccc(S(=O)(=O)N2CC(Oc3ccccc3-c3noc(C)n3)C2)c1 | -4.81% | -1.78% | -0.534% | -7.29% | -3.43% |
| CC1(C(=O)NC2CCCCC2)Cn2c(ccc2-c2ccco2)C(=O)N1CCc1cccs1 (stereo not given) | -4.57% | 4.45% | 2.72% | -2.38% | -4.82% |
| CCOC(=O)COc1ccc2c(-c3ccccc3)cc(=O)oc2c1 | -7.94% | 3.62% | -0.397% | -10.8% | -26.4% |
| Cc1nn(C)c(C)c1S(=O)(=O)N1CCC2(CC1)CC(N(C)Cc1ccccc1)CCO2 (stereo not given) | -5.28% | -7.61% | -4.03% | -14.5% | -5.97% |
| COc1ccc(CNC(=O)C(C)n2ccc3cc(S(=O)(=O)N4CCCCC4)ccc32)cc1OC (stereo not given) | -13.7% | 0.087% | 2.25% | -4.3% | -2.08% |
| CCCN1C(=O)c2c(C(=O)NCCc3ccc(C)cc3)ncn2CC1(C)C(=O)NCc1ccc(C)cc1 (stereo not given) | -0.739% | 0% | 6.92% | 5.52% | 8.59% |
| O=C(CCn1cncn1)N1CCC(c2nccn2Cc2cccnc2)CC1 | -1.85% | -1.92% | 2.76% | -0.198% | -8.01% |
| CC1CCC(NC(=O)C2(C)Cn3c(ccc3-c3ccco3)C(=O)N2Cc2cccnc2)CC1 (stereo not given) | 0.916% | 0% | 10.8% | 3.9% | 3.59% |
| CC1(C(=O)NC2CCCCC2)Cn2c(ccc2-c2ccco2)C(=O)N1Cc1ccc2c(c1)OCO2 (stereo not given) | -6.96% | -0.065% | 0.555% | -6.61% | -4.68% |
| CCOc1ccc(CCN2C(=O)c3ccc(-c4ccco4)n3CC2(C)C(=O)NC2CCCCC2)cc1 (stereo not given) | -11.3% | -0.146% | -6.35% | -11% | -7.74% |
| CC1CCC2(C(=O)O)CCC3(C)C(=CCC4C5(C)CCC(O)C(C)(C(=O)O)C5CCC43C)C2C1(C)O (stereo not given) | 2.83% | 6.22% | 3.94% | -7.12% | 6.51% |
| CNC(=O)[C@@H]1CN(C(=O)c2conc2C)C[C@H]1COC | -5.71% | -10.1% | -4.44% | -12.6% | -23.1% |
| Cc1ccccc1CCN1CCC(CN(C(=O)c2ccoc2C)C2CCCC2)CC1 | -5.59% | -3.3% | -10.2% | -12.8% | -6.61% |
| CON(C)C(=O)[C@H](O)[C@H](Cc1ccccc1)NC(=O)c1cc2cc(Cl)ccc2[nH]1 | -1.17% | 8.62% | 10.4% | -14.9% | 3.32% |
| Cn1ncc(Cl)c1-c1cc(C(=O)N[C@H](CN)Cc2ccc(F)c(F)c2)sc1Cl | 9.68% | 12% | 9% | -14% | 5.46% |

| SMILES | activity change, negative = inhibition [1] | activity change, negative = inhibition [2] | activity change, negative = inhibition [3] | activity change, negative = inhibition [4] | activity change, negative = inhibition [5] |
| --- | --- | --- | --- | --- | --- |
| COc1cccc(CNC(=O)N2CCn3cccc3C2Cc2ccccc2)c1 (stereo not given) | 1.78% | 0% | 1.78% | -3.54% | -2.27% |
| CCOC(=O)c1cc2n(n1)CC(C)(C(=O)NC1CCCC1)N(Cc1ccc(Cl)cc1)C2=O (stereo not given) | 4.94% | 2.49% | 6.6% | 5.31% | 4.72% |
| Cc1ccccc1CNC(=O)CCn1ccc2cc(S(=O)(=O)N3CCCCC3)ccc21 | 5.34% | 0% | 4.73% | -2.1% | 1.59% |
| NC(=O)c1cccc(CN2CCCC3(Cc4ccccc4N(C(=O)c4ccc(Cl)cc4)C3)C2)c1 (stereo not given) | -7.76% | -2.81% | -6.83% | -11.7% | -7.3% |
| CCNc1nc2c(ncn2[C@H]2C[C@H](O)[C@@H](CO)O2)c(=O)[nH]1 | -0.892% and 4.27% | 4.12% and 8.4% | 1.64% and 6.91% | -4.5% and -11.5% | 8.2% and -0.882% |
| NC(=O)NO | 6.57% | 11.7% | 5.19% | -2.14% | 9.44% |
| Clc1ccccc1C(c1ccccc1)(c1ccccc1)n1ccnc1 | -9.99% | 4.48% | -15.4% | -34.8% | 6.11% |
| CCN(CC)C(=O)c1ccc(Nc2nc(OCC3CCCCC3)c3[nH]cnc3n2)cc1 | -14.8% | -1.78% | -12.5% | -84.1% | -22.8% |
| CC(=O)OC1CC(=O)C2(C)C3CC4=C(OC(C)CC4=O)OC3(C)CCC2C1(C)C (stereo not given) | -3.76% | 2.25% | 2.81% | -91.2% | 2.78% |
| Cc1ccc(C)c(Cn2nc3n(CC(C)C)c(=O)c4ccccc4n3c2=O)c1 | 3.84% | 2.74% | 5.59% | 3.56% | 4.46% |
| CN1C(=O)c2cc(C(=O)NCc3ccc4c(c3)OCO4)nn2CC1(C)C(=O)NC1CCCCC1 (stereo not given) | -0.814% | 3.31% | -1.57% | 5.24% | 1.39% |
| Cc1ncoc1C(=O)N1C[C@@H](COCC2CC2)[C@H](c2ccccn2)C1 | -1.47% | -3.84% | 1.21% | -0.492% | -1.06% |
| CCOc1ccc(CCN2C(=O)c3c(C(=O)OC)ncn3CC2(C)C(=O)NC2CCCCCC2)cc1 (stereo not given) | 4.23% | 1.38% | 3.15% | 12.9% | 6.58% |
| CCOC(=O)c1cn(C2CN(S(=O)(=O)c3ccc(C)c(C)c3)C2)nn1 | 0.74% | -0.08% | 1.86% | -2.41% | 2.93% |
| Cn1ncc2c(C(=O)NC3CCCCCC3)cc(C(C)(C)C)nc21 | -6.96% | -7.4% | -5.65% | -13.7% | -7.77% |
